Measured values as given in patent US20220106375A1 (Memorial Sloan Kettering, published 2022).

Target: T1, IL-15Rα-Fc fusion polypeptide including the full length extracellular domain of IL-15Rα (human, heterogeneously glycosylated (~60-90 KDa, ~60 KDa after deglycosylation); sites not determined in the examples)
T1 construct: Disulfide-linked dimer through the Fc; also called WT IL-15RαFL-hIgG1 Fc; FL
Assay: Protein A-purified co-expressed complex, reducing SDS-PAGE
Method: Biochemical characterization of IL15/IL15Rα-Fc complexes. […] Invitrogen SeeBlue Plus2 Pre-Stained Standard (Carlsbad Calif.), or Life Technologies BenchMark Unstained Protein Ladder was used as the protein molecular weight (MW) marker. After electrophoresis, the gel was stained using Coomassie G-250 (GelCode Blue Stain Reagent; Pierce Biotechnology Inc., Rockford, Ill.). The size and purity of complexes was also evaluated by size-exclusion high-performance liquid chromatography (SE-HPLC). Approximately 20 μg of protein was injected into a TSK-GEL G4000SWXL 7.8 mm×30 cm, 8 μm column (TOSOH Bioscience, Tokyo, Japan) with 0.4 M NaClO₄, 0.05 M NaH₂PO₄, pH 6.0 buffer at flow rate of 0.5 mL/min, and UV detection at 280 nm. Ten microliters of gel-filtration standard (Sigma-Aldrich, St. Louis, Mo.) was analyzed in parallel for MW markers.
Determination of biochemical purity of IL-15/IL-15Rα-Fc complex by SDS-PAGE, and HPLC. To determine the molecular size and biochemical purity of the IL15/IL15Rα-Fc complexes, SDS-PAGE and SEC-HPLC were performed. Under reducing conditions, WT IL-15/IL-15Rα-Fc and MUT IL-15/IL-15Rα-Fc complexes gave rise to two major bands on Tris-glycine SDS-PAGE: ˜60-90 KDa IL-15Rα-Fc and −16 KDa IL-15 (FIG. 18A). […]

binding result: binds
B1: N72D mutant IL-15 (MUT) (ligand)
chain: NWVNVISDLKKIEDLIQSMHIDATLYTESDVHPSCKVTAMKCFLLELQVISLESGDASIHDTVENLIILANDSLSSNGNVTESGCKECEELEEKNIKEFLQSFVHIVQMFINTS
modifications: glycosylated; sites not stated
notes: also called IL[…]D; MUT IL-15
